# The other results are listed elsewhere or left out. At the low end of the ranking the order means little.
# Target: T1, GST-Rok-C97-191 (UniProt O34857)
# T1 sequence: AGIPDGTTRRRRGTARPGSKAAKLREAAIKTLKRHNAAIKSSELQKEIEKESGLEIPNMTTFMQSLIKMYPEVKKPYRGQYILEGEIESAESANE
# Assay: protein binding microarray;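 further: rank score from −0.5 (least bound) to 0.5 (best bound)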
# Conditions: Rok is a gene silencer of Bacillus subtilis; high values mean tight binding; most listed sequences are background and not binding sites; double strand, one strand shown
row,Sequence,binding signal [E-score]
1,CATCTAGA,0.0183
2,CAATCGAC,-0.0898
3,GACACACA,0.00916
4,CCAGCCAC,-0.275
5,ACGAGCCC,-0.166
6,ATTCGCAC,-0.058
7,ATATCACC,0.121
8,TCACTTAA,0.0956
9,CCGATTTC,-0.243
10,ATCGATGG,-0.028
11,GAAGGAAC,-0.108
12,AGATCTAT,0.301
13,CAGTACGG,-0.0207
14,AGTAGCTA,0.37
15,ATGTTCAA,-0.0211
16,ATAGATCA,0.217
17,ATTAGGGC,-0.073
18,ATGTATAA,0.364
19,ACATCCAT,0.163
20,CCTACGTA,-0.0162
21,GATCATAC,0.212
22,ACGCATTG,-0.00648
23,TCTCAGAA,-0.107
24,GGGAACTA,0.0986
25,ACACTACC,-0.0628

row,Sequence,binding signal [E-score]
1,ATGTGGCC,-0.0945
2,CACTGCTG,-0.0892
3,CAATGCCG,-0.141
4,GATCGGAC,-0.119
5,ACCCTCTC,-0.294
6,CGAAGCAG,-0.238
7,GGATTATA,0.0636
8,AGAGCCCG,-0.188
9,ATAATGTC,0.112
10,CCGTTGTA,0.155
11,ATAAAGAG,-0.176
12,ACAAGTCT,-0.182
13,CAGAGAGG,-0.134
14,AAACACGG,0.0678
15,AGGTAAGG,-0.181
16,ATTCTAAA,0.222
17,AGTCGCAC,-0.126
18,GATTATCA,0.135
19,AAACAGAC,-0.0177
20,ATTTGTGC,-0.173
21,AGGGATCC,-0.161
22,ATGCTCCA,0.0226
23,CGACCTGC,-0.174
24,AACCGAAC,0.112
25,GTACGCCA,-0.0805

row,Sequence,binding signal [E-score]
1,CAACTGCC,-0.153
2,CCCGACCG,-0.321
3,ACACGTCA,-0.0692
4,AGCAACAC,0.0251
5,ACGGTGCG,-0.12
6,ATACATGC,0.219
7,AGGCAAGC,-0.149
8,CCCGCGAA,-0.0413
9,CCAGCTGG,-0.132
10,GACGGACA,-0.0313
11,GTAACTAA,0.353
12,ATTATTTA,0.37
13,ACGTCGGA,0.0482
14,GAACTGGC,-0.0949
15,ATGTTAGC,0.164
16,CTCTAGTC,0.171
17,GATAGCGC,0.191
18,ATTGATCC,0.169
19,CATCTTTA,0.057
20,TATCCACA,0.0065
21,GAAAACAC,0.0552
22,AAGGCAGT,0.166
23,CTACATGA,0.283
24,ATACAAGG,-0.00241
25,GCCGCTAC,0.199

row,Sequence,binding signal [E-score]
1,AGTGTGAT,0.0321
2,CCGAGCCC,-0.455
3,AGGCACAT,-0.0618
4,GTGTACCA,0.0271
5,AGAAAAAA,0.111
6,AAAGCTAA,0.0397
7,CACGGCCA,-0.119
8,CACAGATA,0.161
9,TAGCCTAA,-0.0305
10,TTATCGAA,0.103
11,GACTGCGA,-0.0419
12,GGAACTGA,0.0662
13,ACAGGATA,-0.0469
14,ATCTCCTG,-0.0812
15,CGGGCCAC,-0.146
16,CGCGGACG,-0.207
17,ACGAGGGG,-0.235
18,ATTGACAA,-0.116
19,CAAGTGAG,0.02
20,GCTTGGCC,-0.411
21,GTAATGGA,0.14
22,ATAAAATC,0.28
23,ACTCATTA,-0.0882
24,CAATGCTA,0.195
25,CACCGAAG,-0.119

row,Sequence,binding signal [E-score]
1,GAATCGCA,-0.139
2,AGCTCGAC,-0.106
3,ATGGGGGG,-0.432
4,AAGTGTAC,0.116
5,ACCTACGA,0.049
6,CTCCTAAG,0.0928
7,GAGAGTGC,-0.103
8,CGCACATA,0.0511
9,CGACTCCC,-0.342
10,TAGGCCGA,-0.0449
11,AGACGCAC,-0.229
12,ACATTGGT,-0.0259
13,CGAAAAAA,-0.0363
14,ATTGTCTA,0.205
15,AATAATGA,0.0696
16,GGCTCAAA,-0.122
17,AGACTTAT,0.146
18,CAGTCCAA,0.000691
19,GAGGAAGA,0.127
20,GGCGCCGA,-0.077
21,ATCCACGC,-0.0769
22,CCTATAAC,0.236
23,CACAGAAC,-0.0764
24,ATAGCAAT,0.19
25,GCGCACAC,-0.245

row,Sequence,binding signal [E-score]
1,TAAGCTGA,-0.117
2,ACCAGCTG,0.00621
3,AAGTGGAA,-0.0578
4,GGTATCTA,0.23
5,ATGATCGG,-0.11
6,CTGCAGGC,-0.199
7,CTCCGGAA,0.00646
8,TGACTCCA,-0.0987
9,GATCTTCA,-0.00463
10,GCGGACTA,0.0993
11,AATGCGCC,-0.0562
12,AGCTGATA,0.181
13,CGATACCG,0.13
14,CACAGCTC,-0.152
15,GGTAAGGA,-0.00191
16,CGACATGA,0.149
17,AAGGTTTG,0.0596
18,TACAACTA,0.338
19,ATATGAAT,-0.0404
20,CATTCAAA,-0.055
21,CCCGGGTA,-0.0896
22,ACTTTAAT,0.104
23,GAAGGGGA,-0.234
24,ACGTGTTA,0.0556
25,CCGAAGGA,-0.172

row,Sequence,binding signal [E-score]
1,TAGTATGA,0.25
2,CAAGGAGC,-0.312
3,CTCACAGC,-0.264
4,ATATTAAT,0.307
5,AAGTCTCC,-0.296
6,GAAGCATC,-0.134
7,CACAAGAC,-0.188
8,TGATCCAA,-0.0389
9,CGTACGAA,-0.0107
10,AATCGCTA,0.111
11,ACGAATCG,-0.151
12,AAAATGTA,0.316
13,ACACAAAC,0.131
14,CATGCTAA,0.084
15,CTCTTCAA,-0.0669
16,AAGCTTGT,0.109
17,AGGGATAA,0.0979
18,AACATCGA,0.134
19,GTTACAGA,0.21
20,GGGACCGA,-0.184
21,AATTTGGG,-0.101
22,GCCGGCAC,-0.227

# Source: publication PMC6212790
